The other results are listed elsewhere or left out.
The compounds below were run on Pseudomonas aeruginosa PA14 dppA1-A5 penta deletion mutant (assay: respiration area under curve with compound as sole nitrogen source, 24 h (OmniLog AUC (arbitrary units)); higher = more respiration / better utilisation as nitrogen source, active = 2000 or more). Conditions: plate: PM8.
Protocol: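 Biolog Phenotype MicroArray plates PM6-PM8: each di/tripeptide is the sole nitrogen source. Tetrazolium reduction was read in the OmniLog for 24 h at 37°C and summarised as area under the respiration curve (arbitrary units). Values below 2000 count as no respiration.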
N[C@@H](Cc1ccc(O)cc1)C(=O)NCC(=O)NCC(=O)O was tested, and the “respiration area under curve” value was active: 6190.
